Values joined by “and” are separate entries in the source; they are usually repeats but may differ in a detail not shown here. Equal entries are not always repeated. The whole screen tested about 220,000 compounds, of which about 5,700 (2.6%) were called active. This list was built around the results that the source calls inconclusive (neither active nor inactive); the mix of calls is not that of the screen. Calls follow the shape of the dose curve; as a rule, active = well fitted inhibition curve with a large enough effect; inconclusive = small, poorly fitted or top-dose-only effect; inactive = no such curve, though single readings can be large or run the other way. Where the call is inconclusive, the potency comes from a doubtful curve fit.
These compounds were tested against Lysine-specific demethylase 5B (Homo sapiens) (UniProt Q9UGL1) (assay: Primary screen for KDM5B Histone Demethylases FDH-coupled qHTS). Conditions: FDH-coupled NADH fluorescence (FDH is formaldehyde dehydrogenase); activity change, negative = inhibition: at 57.7 µM (top of the series) unless noted.
Sequence of UniProt Q9UGL1 (Q9UGL1 whole entry, looked up): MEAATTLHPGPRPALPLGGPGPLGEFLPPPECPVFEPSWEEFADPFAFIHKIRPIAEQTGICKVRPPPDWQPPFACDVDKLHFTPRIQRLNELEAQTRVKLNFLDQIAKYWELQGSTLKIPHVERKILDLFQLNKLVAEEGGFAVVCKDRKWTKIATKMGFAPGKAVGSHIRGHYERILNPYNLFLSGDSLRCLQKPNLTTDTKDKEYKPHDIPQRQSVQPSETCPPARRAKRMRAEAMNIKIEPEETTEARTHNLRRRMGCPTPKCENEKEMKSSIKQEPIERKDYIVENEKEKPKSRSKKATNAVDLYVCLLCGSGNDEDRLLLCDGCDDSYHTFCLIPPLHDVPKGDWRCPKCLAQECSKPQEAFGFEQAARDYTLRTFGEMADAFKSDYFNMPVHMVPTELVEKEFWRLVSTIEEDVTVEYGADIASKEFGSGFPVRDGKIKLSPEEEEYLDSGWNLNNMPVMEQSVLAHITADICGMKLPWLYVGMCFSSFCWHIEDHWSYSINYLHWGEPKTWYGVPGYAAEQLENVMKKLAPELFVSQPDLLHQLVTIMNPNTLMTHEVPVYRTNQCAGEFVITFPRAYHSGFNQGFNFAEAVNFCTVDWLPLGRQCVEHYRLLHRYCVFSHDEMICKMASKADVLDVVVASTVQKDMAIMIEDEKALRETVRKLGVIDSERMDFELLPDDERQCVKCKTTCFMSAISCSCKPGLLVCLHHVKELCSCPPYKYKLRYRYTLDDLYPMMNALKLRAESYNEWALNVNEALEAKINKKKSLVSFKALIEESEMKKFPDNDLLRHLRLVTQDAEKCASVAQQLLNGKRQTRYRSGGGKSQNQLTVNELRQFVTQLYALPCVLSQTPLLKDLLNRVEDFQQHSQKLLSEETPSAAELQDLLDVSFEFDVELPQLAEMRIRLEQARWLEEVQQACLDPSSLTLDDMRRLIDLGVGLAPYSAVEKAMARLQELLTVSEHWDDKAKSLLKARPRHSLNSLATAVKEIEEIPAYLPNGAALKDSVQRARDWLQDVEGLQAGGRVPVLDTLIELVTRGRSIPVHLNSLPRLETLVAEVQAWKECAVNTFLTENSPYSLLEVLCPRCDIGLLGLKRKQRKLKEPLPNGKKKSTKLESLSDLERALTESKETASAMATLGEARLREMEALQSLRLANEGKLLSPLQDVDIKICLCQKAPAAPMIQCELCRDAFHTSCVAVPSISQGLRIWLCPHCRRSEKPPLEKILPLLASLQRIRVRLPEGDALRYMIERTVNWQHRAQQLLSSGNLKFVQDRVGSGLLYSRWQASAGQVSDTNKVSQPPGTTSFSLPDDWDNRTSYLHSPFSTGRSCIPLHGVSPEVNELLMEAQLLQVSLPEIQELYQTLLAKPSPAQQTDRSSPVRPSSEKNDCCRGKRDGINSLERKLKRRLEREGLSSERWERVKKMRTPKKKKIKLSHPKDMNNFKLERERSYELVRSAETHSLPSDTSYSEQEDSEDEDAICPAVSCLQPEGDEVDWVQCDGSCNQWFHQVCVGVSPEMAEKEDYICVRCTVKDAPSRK
Summary of the method: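 qHTS format, multiple compound concentrations. Buffer 50 mM HEPES pH 7.5/0.01% Tween-20; 200 nM KDM5BΔAP final; 10 min compound preincubation; substrate-mix levels 12.5 µM peptide, 25 µM α-KG, 0.25 mM NAD⁺; 30 min RT; ΔRFU.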
Also: nearly all actives have a fitted effect of over 70% in size.
For activity change, negative = inhibition in this document: 0% is about no effect.
Potency is read from the fitted curve at half-maximal effect; tags tell the direction and shape of the fitted curve.

COc1ccc(C(CC(=O)N(C)C)c2ccccc2)cc1 (configuration not stated) was tested. Which Potency did it give?
Its Potency is “inactive”.

For Cn1c(Sc2ncnc3scc(-c4ccccc4)c23)nnc1C(F)(F)F, which Potency is on record?
Its Potency is “inactive”.

For O=C(Nc1ccc(Cl)cc1Cl)c1cn2c(n1)CN(C(=O)c1ccccc1)CC2, which Potency is on record?
Its Potency is inconclusive: 39.8 µM [inhibitor, partial curve, poor fit].

COc1cc(NC(=O)CSc2nc3nc(C)c(Cc4ccc(C)cc4)c(C)n3n2)cc(OC)c1 was tested. Which Potency did it give?
Its Potency is inconclusive: 39.8 µM [inhibitor, single point].

For COCCn1c(SCC(=O)N(C)c2ccccc2)nc2c([nH]c3ccccc32)c1=O, which Potency is on record?
Its Potency is inconclusive: 31.6 µM [inhibitor, single point].

Which Potency does the source give for CCCSCCCNC(=O)c1ccc(Cn2c(=O)c3cccn3c3cccnc32)cc1 here?
Its Potency is inconclusive: 8.91 µM [inhibitor, partial curve, poor fit].

Cn1c(SCc2coc(-c3cccs3)n2)nnc1-c1ccccc1 was tested. Which Potency did it give?
The Potency was “inactive”.

CCN1c2cc(C(=O)NCc3ccccc3)ccc2C(=O)N2CCCCC21 (configuration not stated) was tested. Which Potency did it give?
Its Potency is inconclusive: 22.4 µM [inhibitor, partial curve, poor fit].

How did the Potency turn out when O=C(/C=C/c1ccc(-c2ccccc2)s1)N(Cc1ccco1)C1CC1 was run?
The Potency was inconclusive: 25.1 µM [inhibitor, single point].

Cn1cc(CN2C[C@@H]3OCC(=O)N[C@@H]3C2)c2ccccc21 was tested. Which Potency did it give?
The Potency was inconclusive: 56.2 µM [inhibitor, single point].

How did the Potency turn out when CCN1c2cc(C(=O)Nc3ccccc3)ccc2C(=O)N2CCCC21 (configuration not stated) was run?
The Potency was inconclusive: 22.4 µM [inhibitor, partial curve, poor fit].

Cc1csc(NC(=O)c2ccc3c(c2)OCC(=O)N(Cc2cnn(C)c2)C3)n1 was tested. Which Potency did it give?
The Potency was inconclusive: 35.5 µM [inhibitor, single point].

With COCCN1C(=O)[C@@H]2C[C@@H](CN2Cc2ccc3ccccc3n2)Oc2ccccc21 as the compound, how does the Potency read?
Its Potency is active: 31.6 µM.

Which Potency does the source give for CCCOC(=O)CSc1nnc2ccc3ccccc3n12 here?
The Potency was inconclusive: 31.6 µM [inhibitor, partial curve, poor fit].

Which Potency does the source give for COc1ccc(NC(=O)c2ccc3c(c2)CCN3S(=O)(=O)c2ccc(C)cc2)cc1Cl here?
Its Potency is inconclusive: 28.2 µM [inhibitor, partial curve, poor fit].

For Fc1ccc(CN2CCC3(CC(c4cccc(C(F)(F)F)c4)=NO3)C2)cc1 (configuration not stated), which Potency is on record?
The Potency was inconclusive: 50.1 µM [inhibitor, partial curve].

Cc1nn2c(c1-c1ccccc1N1CCCC1)N(C(=O)c1ccc(F)cc1)CCC2 was tested. Which Potency did it give?
The Potency was inconclusive: 11.2 µM [inhibitor, partial curve].

Which Potency does the source give for Cl/C(=C/c1ccc(Cl)cc1)c1ncc(-c2ccc(Cl)cc2)o1 here?
Its Potency is inconclusive: 1.78 µM [inhibitor, partial curve, poor fit].

For COc1ccc(NC(=O)c2cn(-c3ccccc3)nc2-c2ccc(C)cc2)cc1, which Potency is on record?
Its Potency is inconclusive: 35.5 µM [inhibitor, partial curve, poor fit].

How did the Potency turn out when CC(C)COc1cc(=O)n2c(c1C(=O)N1CCN(c3ccccn3)CC1)CCCCC2 was run?
The Potency was inconclusive: 31.6 µM [inhibitor, partial curve, poor fit].

For COc1ccc(OC)c(C(C)NC(=O)CCc2cccs2)c1 (configuration not stated), which Potency is on record?
The Potency was “inactive”.

Which Potency does the source give for Cc1cc(C(=O)NC(C)CCCC(C)C)c2ccccc2n1 (configuration not stated) here?
Its Potency is “inactive”.

For COc1cccc(-c2nc(-c3c(C)noc3C)cc3c2cc(C)n3CCN(C)C)c1, which Potency is on record?
The Potency was active: 39.8 µM.

CCOc1ccccc1-n1cc2c(c1-c1ccc(OC)cc1)c(=O)n(C)c(=O)n2C was tested. Which Potency did it give?
Its Potency is inconclusive: 2.82 µM [inhibitor, full curve, poor fit].

How did the Potency turn out when Cc1ccsc1C(=O)N1CCCC(c2nnnn2C)C1 (configuration not stated) was run?
Its Potency is inconclusive: 25.1 µM [inhibitor, single point].

With COC[C@@H]1CN(C(=O)c2cn3ccccc3n2)C[C@H]1c1ccncc1 as the compound, how does the Potency read?
Its Potency is inconclusive: 22.4 µM [inhibitor, single point].

For Cc1cccc(OCC(=O)Nc2ccc3oc(=O)ccc3c2)c1, which Potency is on record?
Its Potency is inconclusive: 22.4 µM [inhibitor, single point] and inconclusive: 28.2 µM [inhibitor, partial curve, poor fit].

With CCCn1ncc(-c2nc(-c3ccncc3)no2)c1C as the compound, how does the Potency read?
Its Potency is “inactive”.

Which Potency does the source give for CCOCCCNc1oc(/C=C/c2ccccc2OC)nc1C#N here?
The Potency was inconclusive: 22.4 µM [inhibitor, partial curve, poor fit].

N#C/C(=C/c1cccc(C#N)c1)C(=O)c1c[nH]c2cc(F)ccc12 was tested. Which Potency did it give?
Its Potency is inconclusive: 39.8 µM [inhibitor, single point].

Which Potency does the source give for O=C(O)c1cc(-c2cccnc2)nc2cc(N3CCOCC3)ccc12 here?
Its Potency is inconclusive: 22.4 µM [inhibitor, partial curve, poor fit].

For Cc1nc2ccccc2nc1CN1C(=O)C2CCCN2C1=O (configuration not stated), which Potency is on record?
The Potency was “inactive”.

With COC(=O)/C(=C\c1ccc(OC(F)(F)F)cc1)NC(=O)c1ccccc1 as the compound, how does the Potency read?
Its Potency is “inactive”.

N#CC(C#N)=C/C=C(\Nc1ccc(Cl)cc1)c1ccc(Cl)cc1 was tested. Which Potency did it give?
Its Potency is inconclusive: 39.8 µM [inhibitor, single point].

Which activity change, negative = inhibition does the source give for Cc1ccccc1-c1nn2c(=O)cc(CN3CCN(C(=O)c4ccc(C(C)(C)C)cc4)CC3)nc2s1 here?
The activity change, negative = inhibition was inconclusive: -35.9% [inhibitor].

With COc1ccc2nc(C)cc(Sc3nc4ccccc4s3)c2c1 as the compound, how does the Potency read?
The Potency was inconclusive: 28.2 µM [inhibitor, partial curve, poor fit].

With CC(C)NCCN1CCCC1 as the compound, how does the Potency read?
Its Potency is “inactive”.

CCCN1C(=O)CCc2cc(NC(=O)c3cccc(N(C)C)c3)ccc21 was tested. Which Potency did it give?
Its Potency is inconclusive: 22.4 µM [inhibitor, single point].

How did the Potency turn out when CN1CC(=O)N(c2ccccc2F)Cc2c(NCCc3ccc(Cl)cc3)ncnc21 was run?
The Potency was active: 25.1 µM.

COc1ccc(-c2nc3c(C)cccc3cc2CN2CCC[C@H]2CO)cc1OC was tested. Which Potency did it give?
The Potency was active: 25.1 µM.

Cc1ccccc1-c1nc(S(=O)(=O)c2ccc3c(c2)OCCO3)c(N2CCN(C)CC2)o1 was tested. Which Potency did it give?
Its Potency is “inactive”.

For CCOc1ccc(CN2C[C@@H](NC(=O)c3cccnc3)C[C@H]2CO)cc1, which Potency is on record?
Its Potency is “inactive”.

With CCCn1c(-n2nc(C)cc2C)nc2c1c(=O)n(Cc1ccc(F)cc1)c(=O)n2C as the compound, how does the Potency read?
Its Potency is “inactive”.

With COc1cc(CN2CCC(C)(NC(C)=O)CC2)cc(Nc2ccccc2)c1 as the compound, how does the Potency read?
The Potency was “inactive”.

For O=C(NC1CCN(c2cc(-c3cccs3)[nH]n2)C1)c1cccc2[nH]ccc12 (configuration not stated), which Potency is on record?
Its Potency is inconclusive: 25.1 µM [inhibitor, partial curve, poor fit].

For CC(C)CCN1CCOc2cc(C(=O)N(C)c3cccnc3)ccc2C1, which Potency is on record?
Its Potency is inconclusive: 35.5 µM [inhibitor, partial curve, poor fit].

Which Potency does the source give for COc1ccc(C(=O)NCc2cccnc2N(C)C2CCCCC2)o1 here?
The Potency was inconclusive: 12.6 µM [inhibitor, partial curve].

With c1ccc(CO[C@@H]2CO[C@H]3[C@@H]2OC[C@@H]3n2nnnc2SCc2ccco2)cc1 as the compound, how does the Potency read?
Its Potency is inconclusive: 20 µM [inhibitor, partial curve, poor fit].

How did the Potency turn out when CNC(=O)[C@@H]1C[C@@H](n2cc(CC(C)C)nn2)CN1 was run?
The Potency was inconclusive: 4.47 µM [inhibitor, partial curve].

Which Potency does the source give for Cc1ncc(-c2ccc(C)c(S(=O)(=O)Nc3cccc(Cl)c3)c2)o1 here?
The Potency was “inactive”.

With COc1cncc(N2C[C@H]3[C@H](C2)[S+](=O)([O-])C(C)(C)C(=O)N3Cc2ccccc2)c1 as the compound, how does the Potency read?
The Potency was active: 7.08 µM.

How did the Potency turn out when CC(C)Cc1cc(C[C@@H]2C[C@H](NC(=O)C(C)(C)C)C2(C)C)no1 was run?
The Potency was “inactive”.

For O=C(Cc1ccccc1)N1CCCC2(C1)Nc1cccnc1NC2=NC1CCCC1 (configuration not stated), which Potency is on record?
The Potency was active: 28.2 µM.

For CCN(CC)CCCNC(=O)/C=C/C(=O)O, which Potency is on record?
The Potency was inconclusive: 31.6 µM [inhibitor, partial curve, poor fit].

How did the Potency turn out when OC(COc1ccccc1F)CN(Cc1ccccc1)CC(O)COc1ccccc1F (configuration not stated) was run?
Its Potency is “inactive”.

Which Potency does the source give for COc1ccc(CCNC(=O)c2ccc(C3Nc4ccccc4S(=O)(=O)N3)cc2)cc1OC (configuration not stated) here?
The Potency was inconclusive: 25.1 µM [inhibitor, single point].

Which Potency does the source give for Cc1nc2cc(NC(C)C(=O)Nc3ccc(Cl)cc3Cl)ccc2o1 (configuration not stated) here?
Its Potency is inconclusive: 7.08 µM [inhibitor, full curve, poor fit].

For O=S(=O)(NCCCO)c1ccc(Cl)cc1, which Potency is on record?
The Potency was “inactive”.

For CN1CCC2(C1)CN(Cc1ccccc1)c1ccc(C(=O)NC3CCC3)cc12 (configuration not stated), which Potency is on record?
The Potency was inconclusive: 39.8 µM [inhibitor, partial curve, poor fit].

With CCN(CC)c1cc2c(cc1F)c(=O)c(S(=O)(=O)c1cc(C)ccc1C)cn2Cc1ccccc1 as the compound, how does the Potency read?
The Potency was inconclusive: 39.8 µM [inhibitor, single point].

How did the Potency turn out when Cc1cc(C(=O)CSc2nnc(COc3ccccc3Cl)n2C)c(C)n1Cc1cccs1 was run?
The Potency was “inactive”.

With CC(=O)N1CCN(C(=O)c2ccc3c(c2)NC(C)(CCCCc2ccccc2)CO3)CC1 (configuration not stated) as the compound, how does the Potency read?
The Potency was inconclusive: 25.1 µM [inhibitor, single point].

With COc1ccc(-c2nn(-c3ccccc3C)cc2CN(C)CCN2CCOCC2)cc1F as the compound, how does the Potency read?
Its Potency is “inactive”.

With Cn1ccc2c(C(=O)NCCc3cnc[nH]3)nc(-c3cccc(C(F)(F)F)c3)cc21 as the compound, how does the Potency read?
Its Potency is inconclusive: 8.91 µM [inhibitor, partial curve, poor fit].

How did the Potency turn out when CC(=O)Nc1cccc(C(=O)O)c1O was run?
The Potency was inconclusive: 25.1 µM [inhibitor, partial curve, poor fit].

For CC(C)(O)C#Cc1ccc(C(=O)N2CCOCC2CC(=O)NC2CC2)o1 (configuration not stated), which Potency is on record?
Its Potency is inconclusive: 11.2 µM [inhibitor, single point].

With O=C1Nc2ccc(-c3ccccc3F)cc2C(=O)N2CCN(C(=O)NC3CCCCC3)C[C@H]12 as the compound, how does the Potency read?
Its Potency is inconclusive: 22.4 µM [inhibitor, single point].

Reference: PubChem BioAssay AID1347165 (National Center for Advancing Translational Sciences (NCATS), 2019)
